According to paper PMC4336329 (PLoS ONE, 2015):
About 2,200 (0.71%) of roughly 310,000 compounds showed an effect of 50% or more. Effects have a minus sign here. The list shows a part of the results.

The compounds below were run against human ether-à-go-go-related gene (hERG) potassium channel (human, UniProt Q12809) (assay: primary screen, population patch clamp on CHO cells stably expressing hERG).
Sequence of human ether-à-go-go-related gene (hERG) potassium channel (Q12809 whole entry, looked up): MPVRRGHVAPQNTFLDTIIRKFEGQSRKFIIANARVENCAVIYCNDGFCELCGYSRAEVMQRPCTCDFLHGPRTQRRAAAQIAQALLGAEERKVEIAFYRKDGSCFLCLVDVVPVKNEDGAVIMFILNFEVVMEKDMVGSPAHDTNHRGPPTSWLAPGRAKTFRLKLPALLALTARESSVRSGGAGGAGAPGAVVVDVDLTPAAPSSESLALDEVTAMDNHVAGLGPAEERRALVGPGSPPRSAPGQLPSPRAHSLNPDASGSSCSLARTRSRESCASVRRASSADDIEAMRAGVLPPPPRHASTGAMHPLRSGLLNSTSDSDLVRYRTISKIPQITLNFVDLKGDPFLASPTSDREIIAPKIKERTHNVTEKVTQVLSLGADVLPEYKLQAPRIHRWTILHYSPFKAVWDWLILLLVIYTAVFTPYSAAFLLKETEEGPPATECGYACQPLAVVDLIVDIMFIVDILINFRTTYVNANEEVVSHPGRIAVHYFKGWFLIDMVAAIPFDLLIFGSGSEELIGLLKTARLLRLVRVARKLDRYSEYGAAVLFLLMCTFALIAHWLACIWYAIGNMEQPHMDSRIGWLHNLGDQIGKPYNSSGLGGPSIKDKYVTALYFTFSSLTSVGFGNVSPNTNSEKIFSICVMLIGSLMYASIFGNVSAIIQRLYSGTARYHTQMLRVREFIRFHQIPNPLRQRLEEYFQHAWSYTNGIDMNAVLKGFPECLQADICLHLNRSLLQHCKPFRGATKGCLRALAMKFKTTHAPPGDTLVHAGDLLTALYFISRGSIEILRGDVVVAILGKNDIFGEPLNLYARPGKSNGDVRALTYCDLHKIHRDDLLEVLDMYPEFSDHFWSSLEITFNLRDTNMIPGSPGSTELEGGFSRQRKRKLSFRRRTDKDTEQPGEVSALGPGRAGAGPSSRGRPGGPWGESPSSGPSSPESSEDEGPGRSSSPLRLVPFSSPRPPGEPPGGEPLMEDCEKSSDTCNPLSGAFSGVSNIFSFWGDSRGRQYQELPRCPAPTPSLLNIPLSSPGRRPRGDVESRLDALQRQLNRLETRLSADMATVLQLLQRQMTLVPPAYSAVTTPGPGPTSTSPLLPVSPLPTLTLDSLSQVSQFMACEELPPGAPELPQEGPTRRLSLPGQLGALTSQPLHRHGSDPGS

In order of rising “hERG current change (%, negative = inhibition) at 1uM” value:
1. CC(Nc1nc(N2CCOCC2)nc2ccccc12)c1ccccc1 (stereo not shown)  -52.7%
2. Cc1ccccc1C(=O)Nc1ccnn1C1CCN(Cc2cccnc2)CC1  -48.9%
3. CC(C)N(C)C1CCN(C(=O)Nc2ccc(Cl)c(Cl)c2)CC1  -19.5%
4. CN1CCN(Cc2ccc(Sc3ccc(Cl)cc3)c([N+](=O)[O-])c2)CC1  -16.3%
5. CC1(C)C(=O)Nc2ccccc2N1C(=O)COC(=O)CCSc1ccccc1  -11.4%
6. Cl.NS(=O)(=O)c1ccc(CCNC/C=C/c2ccccc2)cc1  -7.95%
7. CCOC(=O)c1cc2c(=O)n3ccccc3nc2n(Cc2ccco2)c1=NC(=O)c1ccccc1OCC  -7.63%
8. CC1CCN(S(=O)(=O)c2cccc(C(=O)Nc3ccccn3)c2)CC1  -7.63%
9. COc1cccc2sc(N(CCN(C)C)C(=O)c3ccc(S(=O)(=O)N4CCCC4)cc3)nc12.Cl  -5.02%
10. O=C(CC1OC(=O)c2ccccc21)NNC(=O)c1ccc(F)cc1 (stereo not shown)  -4.7%
11. CC(=O)NC(Nc1c(C)n(C)n(-c2ccccc2)c1=O)C(Cl)(Cl)Cl (stereo not shown)  -4.28%
12. Cc1ccccc1Nc1c(-c2cccnc2)nc2cccc(C)n12  -3.73%
13. O=C(CSc1nc2[nH]ncc2c(=O)[nH]1)Nc1ccccc1F  -3.59%
14. COC(=O)C1=C(C)Nc2nc(-c3ccccc3)nn2C1c1ccc(C)o1 (stereo not shown)  -0.721%
15. COc1cccc(CNC(=O)c2cccc(S(=O)(=O)N3CCN(C)CC3)c2)c1  0.692%
16. CCOC(=O)c1sc(NC(=O)c2cc(S(=O)(=O)N3CCOCC3)ccc2C)nc1C  0.945%
17. O=S1(=O)N=C2CCCCCN2C(c2ccccc2)N1 (stereo not shown)  1.16%
18. COc1ccc(-n2c(CCc3ccccc3)nnc2SCC(=O)NCc2ccccc2)cc1  1.21%
19. CCOc1ccc(N(CC(=O)NC2CCCC(C)C2C)S(=O)(=O)c2c(C)noc2C)cc1 (stereo not shown)  1.42%
20. COc1ccc(CNC(=O)C/C(C)=N/NC(=O)C(c2ccccc2)c2ccccc2)cc1  1.82%
21. C=CCn1c(SCc2cccc(OC)c2)nnc1-c1ccncc1  2.36%
22. O=C(COC(=O)Cc1c(F)cccc1Cl)Nc1nnc(-c2ccccc2)o1  3.11%
23. CC(=O)c1c(C)nc2ccc(C)cc2c1-c1ccccc1  3.33%
24. CCOc1ccc(C2=C/C(=C/c3cccnc3)C(=O)O2)cc1  3.66%
25. COc1ccc(Nc2nc(N)nc(CSC(=S)N3CCN(C)CC3)n2)cc1  4.03%
26. COc1ccccc1CN1CCN(C(=O)COc2cccc(C)c2)CC1.O=C(O)C(=O)O  5.35%
27. c1ccc(CCNc2nc3ccccc3n3nnnc23)cc1  6.12%
28. CCNS(=O)(=O)c1ccc(NC(=O)Cn2nc(C(F)(F)F)cc2C)cc1  6.33%
29. COC(=O)Cc1c(O)ccn(CCc2ccc(OC)c(OC)c2)c1=O  6.44%
30. CN(C(=O)COC(=O)C1COc2ccccc2O1)C1(C#N)CCCCC1 (stereo not shown)  6.44%
31. COc1ccc(N(CC(=O)NCc2ccco2)C(=O)CCC(=O)Nc2nccs2)cc1  6.73%
32. CCOC(=O)c1ccc(Cn2cnc3ccccc3c2=O)cc1  6.92%
33. CNC[C@H](Cc1ccccc1)NC[C@@H](Cc1cccc2ccccc12)NCCc1ccc(C)cc1  6.93%
34. COc1ccc(/C=C(/NC(=O)c2ccccc2)C(=O)N2CCCCC2)cc1  6.93%
35. C=CCn1c(COc2ccc(CC)cc2)nnc1SC/C(O)=C(\C#N)c1nc2ccccc2[nH]1  7%
36. O=C(c1ccc2oc(CCCc3ccccc3)nc2c1)N1CCCC(CCCO)C1 (stereo not shown)  7.06%
37. N#Cc1ccccc1S(=O)(=O)N1CCN(Cc2c(O)ccc3ccccc23)CC1  7.61%
38. Cc1ccc(-n2nc(C(=O)N3CCN(C)CC3)c3c4ccccc4n(C)c3c2=O)cc1  7.7%
39. Cc1ccccc1-n1ncc2c([N+](=O)[O-])cc([N+](=O)[O-])cc21  7.78%
40. Cc1ccnc(NC(c2ccncc2)c2c(C)[nH]c3ccccc23)c1 (stereo not shown)  7.78%
41. COCCNC(=S)NCCCNc1nc2cc3c(cc2cc1C#N)OCO3  7.9%
42. Cc1ccc(CNC(=O)C(=O)NCC2OCCN2S(=O)(=O)c2cccs2)cc1 (stereo not shown)  8.55%
43. COc1cccc(-c2n[nH]c(=S)n2Cc2ccco2)c1OC  8.67%
44. Cc1cccc(C)c1NC(=O)CN1C(=O)S/C(=C\c2cccn2-c2cccc(C(=O)O)c2)C1=O  8.75%
45. O=C(NCCc1ccc(F)cc1)c1cccc(NC(=O)c2ccccc2)c1  9.16%
46. COc1ccc2c(CC(=O)N3CCc4ccccc43)coc2c1  9.36%
47. O=C(CO/N=C/c1cccc([N+](=O)[O-])c1)Nc1ccc2ccccc2c1  9.73%
48. COc1ccc([N+](=O)[O-])cc1NC(=O)Cc1ccccc1Cl  10.1%
49. CCOc1ccc2[nH]c(=O)c(CN(Cc3cccnc3)C(=O)Nc3ccccc3OC)cc2c1  10.1%
50. C=C(C)Cn1c(N2CCN(c3ccc(OC)cc3)CC2)nc2c1c(=O)n(C)c(=O)n2C  10.4%
51. COc1ccc(C)cc1N(CC(=O)NCCSCc1ccco1)S(=O)(=O)c1ccc(C)cc1  11.2%
52. COCCn1c(=S)[nH]c2ccccc21  11.2%
53. COc1cccc(N(CC(=O)Nc2cccc(C(C)=O)c2)S(C)(=O)=O)c1  11.2%
54. CCNC(=O)C(C)NC(=O)C1=NN(c2ccccc2)C(=O)CC1 (stereo not shown)  11.3%
55. CCc1ccc(-c2nn(-c3ccccc3)cc2C2SCC(=O)N2Cc2ccco2)cc1 (stereo not shown)  11.4%
56. COc1cc(OC)c(S(=O)(=O)Nc2ccc(C(=O)O)cc2)cc1S(=O)(=O)Nc1ccc(C(=O)O)cc1  11.9%
57. O=C(COC(=O)CCC(=O)c1cccs1)NCc1cccs1  12%
58. C=CCc1c(OC(C)=O)c2ccccc2n(C)c1=O  12.1%
59. O=C(C1CCN(S(=O)(=O)c2ccc(Br)s2)CC1)N1CCN(c2ccccc2)CC1  12.8%
60. O=C(CN1CCN(c2ccccc2)CC1)Nc1scc2c1c(=O)oc1ccccc12  13.2%
61. Cc1cccc(OS(=O)(=O)NC(=O)OCC2CCCN3CCCCC23)c1 (stereo not shown)  13.5%
62. CN1CCN(c2nc(N)cc(=O)[nH]2)CC1  13.6%
63. COC(c1ccccc1)c1nnc(CCC(=O)NCCC(C)C)o1 (stereo not shown)  13.7%
64. CC(=O)Nc1c(C)cc(S(C)(=O)=O)cc1C  14.1%
65. N#C/C(=C/c1cccn1-c1cccc(C(=O)O)c1)c1ccc(Cl)cc1  14.4%
66. Nc1cncc(C(=O)O)c1 [24817409]  14.4%
67. Cc1ccc(C2=CC(c3ccccc3)n3ncnc3N2)c(C)c1 (stereo not shown)  14.5%
68. Cc1cccc(C)c1NC(=O)CSc1cc(C(=O)c2nccn2C)c2ccccc2n1  14.7%
69. CCOC(=O)c1cccc(NC(=O)c2ccc(NC(=O)c3ccco3)cc2)c1  14.9%
70. CSc1cccc(NC(=O)C2CCCN2S(=O)(=O)c2ccc(Br)s2)c1 (stereo not shown)  15%
71. COc1c(OC2OC(C(=O)O)C(O)C(O)C2O)cc(O)c2c(=O)cc(-c3ccccc3)oc12 (stereo not shown)  15.3%
72. O=C(O)C/C(=C\c1cc(Cl)c2c(c1)OCO2)c1nc2ccccc2s1  16.2%
73. Cc1ccc2c(CNCc3ccccc3)cc(=O)oc2c1  16.3%
74. COc1cc(OC)c(OC)cc1/C=C1\SC(N2CCCCC2)=NC1=O  16.5%
75. Cc1ccc(S(=O)(=O)NN2C(=O)/C(=C/c3ccc(C(=O)O)cc3)SC2=S)cc1  16.6%
76. COc1ccccc1NC(=O)c1ccccc1C(=O)O  16.9%
77. COc1cccc(C(C2C(=O)CC(C)(C)CC2=O)C2C(=O)CC(C)(C)CC2=O)c1  17.8%
78. COCCOC1CCN(C(=O)c2ccc(OC)c(OC3CCN(C(C)C)CC3)c2)CC1  17.9%
79. O=C(NC(=S)Nc1ccccc1N1CCCCC1)c1ccc(F)cc1Cl  18.2%
80. CCOc1ccc(S(=O)(=O)N(CC)CC(=O)N2CCCC2)cc1C  18.6%
81. COC(=O)CC(=O)CSc1nc(C)cc(C)c1C#N  19.8%
82. COc1cc(/C=N/N2CCOCC2)ccc1OC(=O)c1ccco1  20.3%
83. Cc1ccc(C(=O)NCC(=O)Nc2cccc(S(=O)(=O)NC3=NCCCCC3)c2)cc1C  21.3%
84. Cc1ccc(NC(=O)Cn2ncc3c([nH]c4ccccc43)c2=O)cc1Cl  22.3%
85. COC(CNC(=O)C(=O)Nc1cc2c3c(c1)CCN3C(=O)CC2)OC  33.5%
